We go through twelve compounds from the supplement of paper PMC4604168 (melanoma cell lines).

The other results are listed elsewhere or left out. Repeats are few or missing, and single values can be far off.
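Also: cells treated in 1,536-well plates, then fixed and DAPI-stained, with nuclei counted from automated high-throughput microscope images.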

This experiment relates to A375. Nature of the experiment: cell count relative to DMSO control; melanoma cells; higher = more viable cells. As to conditions: library dose: standard library concentration; 72 h.
As to `CC[C@]1(O)C[C@H]2CN(CCc3c([nH]c4ccccc34)[C@@](C(=O)OC)(c3cc4c(cc3OC)N(C=O)[C@H]3[C@@](O)(C(=O)OC)[C@H](OC(C)=O)[C@]5(CC)C=CCN6CC[C@]43[C@@H]65)C2)C1` [vincristine] + NC(=O)Nc1cc(-c2cccc(F)c2)sc1C(=O)N[C@H]1CCCNC1 [AZD7762] (first compound 0.0005 µM, partner dose 0.1 µM), the cell count amounted to 62.5%.

Regarding `CC[C@]1(O)C[C@H]2CN(CCc3c([nH]c4ccccc34)[C@@](C(=O)OC)(c3cc4c(cc3OC)N(C=O)[C@H]3[C@@](O)(C(=O)OC)[C@H](OC(C)=O)[C@]5(CC)C=CCN6CC[C@]43[C@@H]65)C2)C1` [vincristine] + CN(c1ncccc1CNc1nc(Nc2ccc3c(c2)CC(=O)N3)ncc1C(F)(F)F)S(C)(=O)=O [PF562271] (first compound 0.0005 µM, partner dose 0.4 µM), the cell count is 81.5%.

Compound `N#CC[C@H](C1CCCC1)n1cc(-c2ncnc3[nH]ccc23)cn1` [ruxolitinib] + COCC[n+]1c2c(n(Cc3cnccn3)c1C)C(=O)c1ccccc1C2=O [YM155] (first compound 5 µM, partner dose 0.002 µM) returned a cell count of 108%.

Regarding `N#CC[C@H](C1CCCC1)n1cc(-c2ncnc3[nH]ccc23)cn1` [ruxolitinib] + COc1cc2c(Oc3ccc4[nH]c(C)cc4c3F)ncnc2cc1OCCCN1CCCC1 [cediranib] (first compound 5 µM, partner dose 2 µM), the cell count is 112%.

On to `CC[C@]1(O)C[C@H]2CN(CCc3c([nH]c4ccccc34)[C@@](C(=O)OC)(c3cc4c(cc3OC)N(C=O)[C@H]3[C@@](O)(C(=O)OC)[C@H](OC(C)=O)[C@]5(CC)C=CCN6CC[C@]43[C@@H]65)C2)C1` [vincristine] + OCCn1cc(-c2cnc3nnn(Cc4ccc5ncccc5c4)c3n2)cn1 [PF04217903] (first compound 0.0005 µM, partner dose 5 µM), for which the cell count was 106%.

As to `CC[C@]1(O)C[C@H]2CN(CCc3c([nH]c4ccccc34)[C@@](C(=O)OC)(c3cc4c(cc3OC)N(C=O)[C@H]3[C@@](O)(C(=O)OC)[C@H](OC(C)=O)[C@]5(CC)C=CCN6CC[C@]43[C@@H]65)C2)C1` [vincristine] + CC1(C)NC(=O)N(c2ccc([N+](=O)[O-])c(C(F)(F)F)c2)C1=O [nilutamide] (first compound 0.0005 µM, partner dose 5 µM), the cell count worked out at 87.2%.

The compound `N#CC[C@H](C1CCCC1)n1cc(-c2ncnc3[nH]ccc23)cn1` [ruxolitinib] + COc1ccc(C2=N[C@@H](c3ccc(Cl)cc3)[C@@H](c3ccc(Cl)cc3)N2C(=O)N2CCNC(=O)C2)c(OC(C)C)c1 [Nutlin-3] (first compound 5 µM, partner dose 0.5 µM) came in with a cell count of 123%.

Turning to `Cc1cc(Nc2cc(N3CCN(C)CC3)nc(Sc3ccc(NC(=O)C4CC4)cc3)n2)n[nH]1` [Tozasertib] + O=C(Nc1cccc(Cl)c1)Nc1ncc(CCNc2ncnc3ccsc23)s1 [SNS314] (first compound 0.03 µM, partner dose 0.004 µM), the cell count is 67.4%.

`CC[C@]1(O)C[C@H]2CN(CCc3c([nH]c4ccccc34)[C@@](C(=O)OC)(c3cc4c(cc3OC)N(C=O)[C@H]3[C@@](O)(C(=O)OC)[C@H](OC(C)=O)[C@]5(CC)C=CCN6CC[C@]43[C@@H]65)C2)C1` [vincristine] + Clc1ccc(Nc2nnc(Cc3ccncc3)c3ccccc23)cc1 [vatalanib] (first compound 0.0005 µM, partner dose 10 µM): the cell count turned out to be 58.1%.

Regarding `Cc1cc(Nc2cc(N3CCN(C)CC3)nc(Sc3ccc(NC(=O)C4CC4)cc3)n2)n[nH]1` [Tozasertib] + COc1ccc(Cl)c(Nc2nc3ccccc3nc2NS(=O)(=O)c2cccc(NC(=O)C(C)(C)N)c2)c1 [XL147] (first compound 0.03 µM, partner dose 4 µM), the cell count turned out to be 75.5%.

Regarding `Cc1cc(Nc2cc(N3CCN(C)CC3)nc(Sc3ccc(NC(=O)C4CC4)cc3)n2)n[nH]1` [Tozasertib] + N#CC[C@H](C1CCCC1)n1cc(-c2ncnc3[nH]ccc23)cn1 [ruxolitinib] (first compound 0.03 µM, partner dose 5 µM), the cell count was 145%.

In turn, `N#CC[C@H](C1CCCC1)n1cc(-c2ncnc3[nH]ccc23)cn1` [ruxolitinib] + CC(C)C[C@H](NC(=O)[C@H](Cc1ccccc1)NC(=O)c1cnccn1)B(O)O [Bortezomib] (first compound 5 µM, partner dose 0.005 µM) came in with a cell count of 83%.
